Measurements from patent publication US20250221953A1 (The University of Chicago, priority 2022, published 2025).
Structures can show the parent of a compound that is named as a salt.

System: PD-1^+ Jurkat T cells co-cultured with H596 (PD-L1^+) cells
Test: 1st screen 1b: rescue of PD-L1/PD-1 dependent exhaustion of PD-1+ Jurkat T cells in co-culture (IL-2 ELISA)
Assay type: cell-based, human
Details: 1st screen 1b (Table 4): rescue of PD-L1/PD-1 dependent exhaustion of PD-1 expressing Jurkat T cells co-cultured with PD-L1-expressing H596 cells

Row | SMILES | Relative changed percentage (%)
1 | [Cl][Cd][Cl] [CADMIUM CHLORIDE/cadmium] | −23.32
2 | C=C1CC[C@H](O)C/C1=C/C=C1\CCC[C@]2(C)[C@@H]([C@H](C)CCCC(C)C)CC[C@@H]12 [CHOLECALCIFEROL CRYSTALLINE, CHOLECALCIFEROL] | −71.75
3 | CC(C)CCC[C@@H](C)[C@H]1CC[C@H]2[C@@H]3CC=C4C[C@@H](O)CC[C@]4(C)[C@H]3CC[C@]12C [CHOLESTEROL] | −24.1
4 | O=S(=O)([O-])[O-].[Cu+2] [COPPER(II) SULFATE, ANHYDROUS,/copper, COPPER(II) SULFATE, ANHYDROUS] | 108.4
5 | C[C@]12CCC(=O)C=C1CC[C@@H]1[C@@H]2C(=O)C[C@@]2(C)[C@H]1CC[C@]2(O)C(=O)CO [CORTISONE] | −34.65
6 | CN1CC(=O)NC1=N [CREATININE, ANHYDROUS,] | 125.8
7 | Nc1cc[nH]c(=O)n1 [CYTOSINE] | −34.93
8 | O=C(/C=C/c1ccc(O)c(O)c1)OCCc1ccccc1 [Caffeic acid phenethyl ester] | 2.439
9 | Cn1c(=O)c2c(ncn2C)n(C)c1=O [Caffeine] | −6.216
10 | O=C([O-])CC(O)(CC(=O)[O-])C(=O)[O-].O=C([O-])CC(O)(CC(=O)[O-])C(=O)[O-].[Ca+2].[Ca+2].[Ca+2] [Calcium citrate] | 24.66
11 | O=C([O-])[C@@H](O)[C@@H](O)[C@H](O)[C@@H](O)C(=O)[O-].[Ca+2] [Calcium d-glucarate] | 41.61
12 | COc1cc(CNC(=O)CCCC/C=C/C(C)C)ccc1O [Capsaicin] | −3.441
13 | [Cl][Cr]([Cl])[Cl] [Chromium Chloride] | 25.3
14 | O=C(O)CC(O)(CC(=O)O)C(=O)O [Citric Acid] | 82.45
15 | COC1=C(OC)C(=O)C(C/C=C(\C)CC/C=C(\C)CC/C=C(\C)CC/C=C(\C)CC/C=C(\C)CC/C=C(\C)CC/C=C(\C)CC/C=C(\C)CC/C=C(\C)CCC=C(C)C)=C(C)C1=O [CoQ-10] | 26.1655
16 | CCCCC[C@H](O)CC(=O)CCc1ccc(O)c(OC)c1 [Compound 6-gingerol, 6-gingerol] | −49.51
17 | OC[C@H]1OC(O)[C@H](O)[C@@H](O)[C@H]1O (stereo partly drawn) [D(+)-GALACTOSE ANHYDROUS] | 87.93
18 | O=C(CO)[C@@H](O)[C@H](O)[C@H](O)CO [D(−)FRUCTOSE] | 28.94
19 | O.OC[C@H]1O[C@@H](O[C@H]2[C@H](O)[C@@H](O)C(O)O[C@@H]2CO)[C@H](O)[C@@H](O)[C@H]1O (stereo partly drawn) [D-LACTOSE MONOHYDRATE] | −6.577
20 | N[C@H]1C(O)O[C@H](CO)[C@@H](O)[C@@H]1OS(=O)(=O)O (stereo partly drawn) [D-glucosamine 3-sulfate] | 1.387
21 | CC/C=C\C/C=C\C/C=C\C/C=C\C/C=C\C/C=C\CCC(=O)O [Docosahexaenoic Acid (DHA)] | −27.37
22 | CC/C=C\C/C=C\C/C=C\C/C=C\C/C=C\CCCCCC(=O)O [Docosapentaenoic acid (DPA)] | 29.35
23 | C=C1CC[C@H](O)C/C1=C/C=C1\CCC[C@]2(C)[C@@H]([C@H](C)/C=C/[C@H](C)C(C)C)CC[C@@H]12 [ERGOCALCIFEROL] | −35.92
24 | C[C@]12CC[C@@H]3c4ccc(O)cc4CC[C@H]3[C@@H]1C[C@@H](O)[C@@H]2O [ESTRIOL] | −10.31
25 | C[C@]12CC[C@@H]3c4ccc(O)cc4CC[C@H]3[C@@H]1CCC2=O [ESTRONE] | −34.83

Row | SMILES | Relative changed percentage (%)
26 | CCCCCCCC/C=C\CCCCCCCCCCCC(=O)O [Erucic acid] | 19.78
27 | NS(=O)(=O)c1cc(C(=O)O)c(NCc2ccco2)cc1Cl [FUROSEMIDE/LASIX, FUROSEMIDE, reference compound] | 93.84
28 | O=C([O-])/C=C/C(=O)[O-].[Fe+2] [Ferrous Fumarate] | 2.955
29 | OCC(O)CO [GLYCEROL MOLECULAR BIOLOGY REAGENT, GLYCEROL] | 23.62
30 | N=C(N)N [GUANIDINE HYDROCHLORIDE] | 62.93
31 | Nc1nc2nc[nH]c2c(=O)[nH]1 [GUANINE] | 236
32 | OC[C@H]1O[C@@H](Oc2c[nH]c3ccccc23)[C@H](O)[C@@H](O)[C@@H]1O [INDOXYL beta-D-GLUCOSIDE] | 34.0751
33 | O[C@H]1[C@H](O)[C@@H](O)[C@H](O)[C@@H](O)[C@H]1O [Inositol] | 25.4
34 | C[C@H](O)C(=O)[O-].[Na+] [L(+)LACTIC ACID SODIUM] | −29.31
35 | C[N+](C)(C)[C@@H](Cc1c[nH]c(=S)[nH]1)C(=O)[O-] [L-(+)-ERGOTHIONEINE INNER SALT] | 1.808
36 | O=C1O[C@H]([C@@H](O)CO)C(O)=C1O [L-ASCORBIC ACID BIOXTRA,] | −52.46
37 | N=C(N)NCCC[C@H](N)C(=O)O [L-Arginine] | −34.94
38 | NC(=O)C[C@H](N)C(=O)O [L-Asparagine] | −12.81
39 | N[C@@H](CC(=O)O)C(=O)O [L-Aspartic Acid] | −45.5
40 | N[C@@H](CC(=O)[O-])C(=O)[O-].[K+].[K+] [L-Aspartic acid potassium salt] | 36.7
41 | NC(=O)NCCC[C@H](N)C(=O)O [L-CITRULLINE] | 137.2
42 | N[C@@H](CS)C(=O)O [L-Cysteine] | −23.89
43 | N[C@@H](CSSC[C@H](N)C(=O)O)C(=O)O [L-Cystine] | 14.13
44 | N[C@@H](CCC(=O)O)C(=O)O [L-Glutamic Acid] | −17.58
45 | NC(=O)CC[C@H](N)C(=O)O [L-Glutamine] | 32.61
46 | Cl.N[C@@H](Cc1c[nH]cn1)C(=O)O [L-Histidine hydrochloride] | −46.68
47 | CC[C@H](C)[C@H](N)C(=O)O [L-Isoleucine] | 31.56
48 | CC(C)C[C@H](N)C(=O)O [L-Leucine] | −2.664
49 | Cl.NCCCC[C@H](N)C(=O)O [L-Lysine hydrochloride] | 11.29
50 | Cl.NCCC[C@H](N)C(=O)O [L-ORNITHINE MONOHYDROCHLORIDE] | −48.43

Row | SMILES | Relative changed percentage (%)
51 | N[C@@H](Cc1ccccc1)C(=O)O [L-Phenylalanine] | −8.744
52 | N[C@@H](CO)C(=O)O [L-Serine] | 18.76
53 | N[C@@H](Cc1cc(I)c(Oc2cc(I)c(O)c(I)c2)c(I)c1)C(=O)O [L-THYROXINE] | −38.36
54 | C[C@@H](O)[C@H](N)C(=O)O [L-Threonine] | 49.48
55 | N[C@@H](Cc1c[nH]c2ccccc12)C(=O)O [L-Tryptophan] | 76.34
56 | N[C@@H](Cc1ccc(O)cc1)C(=O)O [L-Tyrosine] | −27.69
57 | CC(C)[C@H](N)C(=O)O [L-Valine] | −20.77
58 | [S]=[Pb] [LEAD(II) SULFIDE] | −39.31
59 | CC(=O)CC(=O)[O-].[Li+] [LITHIUM ACETOACETATE/Acetoacetic acid, LITHIUM ACETOACETATE] | −8.413
60 | CC1=C[C@H](O)CC(C)(C)[C@H]1/C=C/C(C)=C/C=C/C(C)=C/C=C/C=C(C)/C=C/C=C(C)/C=C/C1=C(C)C[C@@H](O)CC1(C)C [Lutein] | 2.386
61 | CC(C)=CCC/C(C)=C/C=C/C(C)=C/C=C/C(C)=C/C=C/C=C(C)/C=C/C=C(C)/C=C/C=C(\C)CCC=C(C)C [Lycopene] | −19.7
62 | [Cl-].[Cl-].[Mg+2] [MAGNESIUM CHLORIDE ANHYDROUS] | −38.6
63 | COc1ccc2[nH]cc(CCNC(C)=O)c2c1 [MELATONIN CRYSTALLINE/melatonin, melatonin] | 13.63
64 | [Cl][Hg][Cl] [MERCURY(II) CHLORIDE] | 22.69
65 | O[C@H]1[C@H](O)[C@@H](O)[C@H](O)[C@@H](O)[C@H]1O [MYO-INOSITOL] | −68.77
66 | N[C@@H](CC(=O)[O-])C(=O)[O-].[Mg+2] [Magnesium Aspartate] | 27.84
67 | O=C(O)CC(O)C(=O)O (centres unmarked) [Malic acid] | 25.66
68 | CS(C)(=O)=O [Methylsulfonylmethane] | −40.49
69 | CCCCCCCCCCCCCC(=O)O [Myristic Acid] | −55.85
70 | CCCC/C=C\CCCCCCCC(=O)O [Myristoleic acid] | 11.08
71 | CC(=O)N[C@H]1C(O)O[C@H](CO)[C@@H](O)[C@@H]1O (stereo partly drawn) [N-acetyl D-glucosamine] | −27.21
72 | NC[C@H](O)c1ccc(O)c(O)c1 [NOREPINEPHRINE] | −37.51
73 | CCCCCCCC/C=C\CCCCCCCCCCCCCC(=O)O [Nervonic acid] | 32.9066
74 | COc1nc(N)nc2nc[nH]c12 [O-METHYLGUANINE] | −16.54
75 | O=C(O)C(=O)O [OXALIC ACID SODIUM SALT] | 7.933

Same assay, conditions: 1st screen 1b (Table 4): rescue of PD-L1/PD-1 dependent exhaustion of PD-1 expressing Jurkat T cells co-cultured with PD-L1-expressing H596 cells; Hydrochloride

Row | SMILES | Relative changed percentage (%)
76 | Cl.N[C@H]1C(O)O[C@H](CO)[C@@H](O)[C@@H]1O (stereo partly drawn) [D-(+)-Glucosamine Hydrochloride] | 7.37
77 | Cl.N[C@H]1C(O)O[C@H](CO)[C@@H](O)[C@@H]1O (some centres unmarked) [Glucosamine Hydrochloride] | 23.41
